According to patent US20210221875A1 (Chugai, published 2021):

Columns and labels:
soluble human IL-6R = biological target: T1, soluble human IL-6R (human, UniProt P08887 20-357); assay: BLI (Octet HTX), molecule on Protein A sensor, hsIL-6R as analyte, 30 C
T1 construct: also called hsIL-6R; recombinant human IL6R
T1 sequence: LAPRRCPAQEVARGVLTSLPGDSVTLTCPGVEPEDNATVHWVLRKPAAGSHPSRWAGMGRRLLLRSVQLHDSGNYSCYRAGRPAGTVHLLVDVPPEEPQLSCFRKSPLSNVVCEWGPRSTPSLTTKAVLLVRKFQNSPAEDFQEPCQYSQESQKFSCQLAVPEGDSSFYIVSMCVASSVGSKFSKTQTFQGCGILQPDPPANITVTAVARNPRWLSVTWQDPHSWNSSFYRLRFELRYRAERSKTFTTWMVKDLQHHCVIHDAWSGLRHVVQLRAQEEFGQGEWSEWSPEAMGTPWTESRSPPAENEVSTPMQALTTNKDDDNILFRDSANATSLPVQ

hsIL-6R-BAP1 = biological target: T2, hsIL-6R-BAP1 (human, UniProt P08887 20-357, biotin on the AviTag sequence (BirA co-expression)); assay: BLI (Octet HTX), hsIL-6R-BAP1 on streptavidin sensor, protease-untreated sample, 30 C
T2 construct: hsIL-6R linked through a linker to a C-terminal AviTag; also called hsIL-6R-Avitag; biotinylated soluble human IL6R
T2 sequence: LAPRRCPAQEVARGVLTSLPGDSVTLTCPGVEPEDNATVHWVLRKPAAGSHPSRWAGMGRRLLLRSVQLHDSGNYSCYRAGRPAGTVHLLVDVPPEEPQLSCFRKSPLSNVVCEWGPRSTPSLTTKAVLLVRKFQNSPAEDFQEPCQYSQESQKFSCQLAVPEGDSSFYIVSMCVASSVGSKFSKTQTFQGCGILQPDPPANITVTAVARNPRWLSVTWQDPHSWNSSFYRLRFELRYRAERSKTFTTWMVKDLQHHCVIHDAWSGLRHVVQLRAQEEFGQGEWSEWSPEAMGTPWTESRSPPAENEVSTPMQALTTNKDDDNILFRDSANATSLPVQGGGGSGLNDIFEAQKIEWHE

biotinylated plexin A1 = biological target: T3, biotinylated plexin A1 (human, UniProt Q9UIW2 27-1253, biotin on the AviTag sequence (BirA co-expression)); assay: BLI (Octet), in the same way as in Example 3
T3 construct: extracellular region of plexin A1 linked to AviTag and FLAG tag; also called biotin-labeled human plexin A1; human plexin A1

B1: IL6R90-G1m/VK1-39-k0MT (antibody, human IgG1, kappa)
heavy: EVQLVESGGGLVQPGGSLRLSCAASGFTFDDYGMSWVRQAPGKALEWVSAISWNGNNTYYTESMKGRFTISRDNAKNTLYLQMNSLRPEDTAVYYCVKGSTAIVGVPPTYPDEYDYWGQGTLVTVSS[left out - human IgG1 constant region]
light: DIQMTQSPSSLSASVGDRVTITCRASQSISSYLNWYQQKPGKAPKLLIYAASSLQSGVPSRFSGSGSGTDFTLTISSLQPEDFATYYCLQFDSYPLTFGGGTKVEIKRTVAAPSVFIFPPSDEQLKSGTASVVCLLNNFYPREAKVQWKVDNALQSGNSQESVTEQDSKDSTYSLSSTLTLSKADYEKHKVYACEVTHQGLSSPVTKSFNRGEC
notes: IgG antibody-like molecule: anti-human IL6R VHH IL6R90 fused with human IgG1 CH1-hinge-CH2-CH3, with a human germline light chain
binding result (soluble human IL-6R): no binding

B2: IL6R90H1006/VK1-39-k0MT (antibody, human IgG1, kappa)
heavy: EVQLVESGGGLVQPGGSLRLSCAASGFTFDDYGMSWVRQAPGKALEWVSAISWNGNNTYYTESMKGRFTISRDNAKNTLYLQMNSLRPEDTAVYYCVKGSTAIVGVPPTYPDEYDYWGQGTLVTVSSASTKSGGSGLSGRSDNHGSSGGGPSVFPLAPSSKSTSGGTAALGCLVKDYFPEPVTVSWNSGALTSGVHTFPAVLQSSGLYSLSSVVTVPSSSLGTQTYICNVNHKPSNTKVDKKV[left out - human IgG1 Fc]
light: DIQMTQSPSSLSASVGDRVTITCRASQSISSYLNWYQQKPGKAPKLLIYAASSLQSGVPSRFSGSGSGTDFTLTISSLQPEDFATYYCLQFDSYPLTFGGGTKVEIKRTVAAPSVFIFPPSDEQLKSGTASVVCLLNNFYPREAKVQWKVDNALQSGNSQESVTEQDSKDSTYSLSSTLTLSKADYEKHKVYACEVTHQGLSSPVTKSFNRGEC
binding result (hsIL-6R-BAP1): no binding

B3: PX02-R2_001-G1mISHI01/VK1-39-k0MT (antibody, human IgG1, kappa)
heavy: QLQLVESGGGLVQPGGSLRLSCTASGISFSISTMGWYRQAPGKQRELVATITSGGEAYYANSMKDRFTISRDNAENTVYLQMNRLKPEDSAVYYCNTKFPWSTDWDSRGQGTQVTVSGGSGLSGRSDNHGSSGGSS[left out - human IgG1 constant region]
light: DIQMTQSPSSLSASVGDRVTITCRASQSISSYLNWYQQKPGKAPKLLIYAASSLQSGVPSRFSGSGSGTDFTLTISSLQPEDFATYYCLQFDSYPLTFGGGTKVEIKRTVAAPSVFIFPPSDEQLKSGTASVVCLLNNFYPREAKVQWKVDNALQSGNSQESVTEQDSKDSTYSLSSTLTLSKADYEKHKVYACEVTHQGLSSPVTKSFNRGEC
notes: uncleaved IgG antibody-like molecule with anti-human plexin A1 VHH in place of VH
binding result (biotinylated plexin A1): no binding

B4: PX02-R4_004-G1mISHI01/VK1-39-k0MT (antibody, human IgG1, kappa)
heavy: QVQLVESGGGLVQPGGSLRLSCTASGISFSISTMGWYRQAPGKQRELVATITSGGEAYYANSMKDRFTISRDNAENTVYLQMNRLKPEDSAVYYCNTKFPWSTDWDSRGQGTQVTVSGGSGLSGRSDNHGSSGGSS[left out - human IgG1 constant region]
light: DIQMTQSPSSLSASVGDRVTITCRASQSISSYLNWYQQKPGKAPKLLIYAASSLQSGVPSRFSGSGSGTDFTLTISSLQPEDFATYYCLQFDSYPLTFGGGTKVEIKRTVAAPSVFIFPPSDEQLKSGTASVVCLLNNFYPREAKVQWKVDNALQSGNSQESVTEQDSKDSTYSLSSTLTLSKADYEKHKVYACEVTHQGLSSPVTKSFNRGEC
notes: uncleaved; light chain printed once for the five molecules
binding result (biotinylated plexin A1): no binding

B5: IL6R90H1002/VK1-39-k0MT (antibody, human IgG1, kappa)
heavy: EVQLVESGGGLVQPGGSLRLSCAASGFTFDDYGMSWVRQAPGKALEWVSAISWNGNNTYYTESMKGRFTISRDNAKNTLYLQMNSLRPEDTAVYYCVKGSTAIVGVPPTYPDEYDYWGQGTLVTVSSASSGGSGLSGRSDNHGSSGGTKGPSVFPLAPSSKSTSGGTAALGCLVKDYFPEPVTVSWNSGALTSGVHTFPAVLQSSGLYSLSSVVTVPSSSLGTQTYICNVNHKPSNTKVDKKV[left out - human IgG1 Fc]
light: DIQMTQSPSSLSASVGDRVTITCRASQSISSYLNWYQQKPGKAPKLLIYAASSLQSGVPSRFSGSGSGTDFTLTISSLQPEDFATYYCLQFDSYPLTFGGGTKVEIKRTVAAPSVFIFPPSDEQLKSGTASVVCLLNNFYPREAKVQWKVDNALQSGNSQESVTEQDSKDSTYSLSSTLTLSKADYEKHKVYACEVTHQGLSSPVTKSFNRGEC
binding result (hsIL-6R-BAP1): no binding

B6: IL6R90H1004/VK1-39-k0MT (antibody, human IgG1, kappa)
heavy: EVQLVESGGGLVQPGGSLRLSCAASGFTFDDYGMSWVRQAPGKALEWVSAISWNGNNTYYTESMKGRFTISRDNAKNTLYLQMNSLRPEDTAVYYCVKGSTAIVGVPPTYPDEYDYWGQGTLVTVSGGSGLSGRSDNHGSSGGSS[left out - human IgG1 constant region]
light: DIQMTQSPSSLSASVGDRVTITCRASQSISSYLNWYQQKPGKAPKLLIYAASSLQSGVPSRFSGSGSGTDFTLTISSLQPEDFATYYCLQFDSYPLTFGGGTKVEIKRTVAAPSVFIFPPSDEQLKSGTASVVCLLNNFYPREAKVQWKVDNALQSGNSQESVTEQDSKDSTYSLSSTLTLSKADYEKHKVYACEVTHQGLSSPVTKSFNRGEC
binding result (hsIL-6R-BAP1): no binding

B7: IL6R90H1005/VK1-39-k0MT (antibody, human IgG1, kappa)
heavy: EVQLVESGGGLVQPGGSLRLSCAASGFTFDDYGMSWVRQAPGKALEWVSAISWNGNNTYYTESMKGRFTISRDNAKNTLYLQMNSLRPEDTAVYYCVKGSTAIVGVPPTYPDEYDYWGQGTLVTVSSASTKLSGRSDNHGGPSVFPLAPSSKSTSGGTAALGCLVKDYFPEPVTVSWNSGALTSGVHTFPAVLQSSGLYSLSSVVTVPSSSLGTQTYICNVNHKPSNTKVDKKV[left out - human IgG1 Fc]
light: DIQMTQSPSSLSASVGDRVTITCRASQSISSYLNWYQQKPGKAPKLLIYAASSLQSGVPSRFSGSGSGTDFTLTISSLQPEDFATYYCLQFDSYPLTFGGGTKVEIKRTVAAPSVFIFPPSDEQLKSGTASVVCLLNNFYPREAKVQWKVDNALQSGNSQESVTEQDSKDSTYSLSSTLTLSKADYEKHKVYACEVTHQGLSSPVTKSFNRGEC
binding result (hsIL-6R-BAP1): no binding
